Data from PubChem BioAssay AID485294 (National Center for Advancing Translational Sciences (NCATS), 2010).
The campaign covered roughly 370,000 compounds. About 150 (0.041%) were called active. Inconclusive results, whose numbers are uncertain, are shown with a selection of clear calls. Calls follow the shape of the dose curve; as a rule, active = well fitted inhibition curve with a large enough effect; inconclusive = small, poorly fitted or top-dose-only effect; inactive = flat fitted curve, though single readings scatter. No potency is given beside an inconclusive call; the fits are too rough.

molecular target: Beta-lactamase (Escherichia coli (strain K12)) (UniProt P00811); assay: qHTS Inhibitors of AmpC Beta-Lactamase (assay with detergent); conditions: AmpC hydrolysis of nitrocefin, absorbance 480 nm, 0.01% Triton; series mostly up to 114 µM; also: nearly all actives have a fitted effect of over 25% in size
Method in brief: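 20 mM phosphate pH 7.0 + 0.01% (detergent screen) or 0.0001% Triton X-100; 5.3 nM AmpC reagent; cpd preinc 15 min RT; nitrocefin (800 uM stock) to start; A480 q20 s × 4 min; Activity was normalised to no-enzyme and no-compound control wells.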
Potency is read from the fitted curve at half-maximal effect; tags tell the direction and shape of the fitted curve.

Chain of UniProt P00811 (P00811 whole entry, looked up): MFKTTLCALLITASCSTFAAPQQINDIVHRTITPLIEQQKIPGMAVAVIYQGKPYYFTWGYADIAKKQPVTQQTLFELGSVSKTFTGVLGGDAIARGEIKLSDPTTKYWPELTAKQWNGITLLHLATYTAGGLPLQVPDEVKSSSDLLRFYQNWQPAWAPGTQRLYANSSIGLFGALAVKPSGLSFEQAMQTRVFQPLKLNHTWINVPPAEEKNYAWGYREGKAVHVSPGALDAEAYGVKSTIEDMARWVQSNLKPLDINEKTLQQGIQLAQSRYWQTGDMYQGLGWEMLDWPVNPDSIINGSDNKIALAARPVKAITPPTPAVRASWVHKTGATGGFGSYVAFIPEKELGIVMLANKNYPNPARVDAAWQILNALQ

SMILES | Potency
Cc1ccc(N=Nc2ccc(O)c(/C=N\NC(=O)c3ccc(N)cc3)c2)cc1C | inconclusive [inhibitor, single point]
CCN(CC)S(=O)(=O)c1ccc(/C=C/C(=O)OCC(=O)Nc2ccc(C(N)=O)cc2)cc1 | inactive
CC(C)(C)C(=O)NNC(=O)COc1ccc2ccccc2c1Br | inactive
O=C(Nc1cccc(-c2nc3cccnc3s2)c1)c1ccco1 | inactive
Cc1ccc(C2=NN(C(=O)CSc3nccn3C)C(c3ccco3)C2)cc1 (centres undefined) | inconclusive [inhibitor, full curve]
O=[N+]([O-])c1ccc(N2CCN(c3ccc([N+](=O)[O-])cc3CO)CC2)c(CO)c1 | inconclusive [inhibitor, full curve, poor fit]
NCCOc1ccc(C23CC4CC(CC(C4)C2)C3)cc1 | inconclusive [inhibitor, partial curve, poor fit]
CN(C)c1cc[n+](CC(=O)Nc2ccc(Cl)cc2)cc1 | inconclusive [inhibitor, partial curve]
CCOC(=O)CSC(=S)NC(=O)c1ccc(OC)cc1 | inactive
Cc1ccccc1NC(=O)c1cnn(-c2ccccc2)c1C | inconclusive [inhibitor, single point]
COc1cc(C2c3c(oc4ccccc4c3=O)C(=O)N2c2ccc(C)cn2)ccc1O (centres undefined) | inactive
C#CCOCCOCCOCCNc1nc(N2CCN(C(=O)[C@H]([C@@H](C)CC)n3cc(CCCCN)nn3)CC2)nc(N2CCN(C(=O)[C@H](C)n3cc(CCCN=C(N)N)nn3)CC2)n1 | inconclusive [inhibitor, partial curve]
CCc1cc(=O)oc2cc(C)cc(OCC(=O)NCC(O)c3ccccc3)c12 (centres undefined) | inconclusive [inhibitor, partial curve, poor fit]
NC(=O)c1cc([N+](=O)[O-])ccc1Nc1ccccc1 | inconclusive [inhibitor, partial curve]
CCCNC(=O)N1CCC(C(=O)c2ccc(F)cc2)CC1 | inconclusive [inhibitor, full curve, poor fit]
CC1(C)CC(=O)C(C(=O)CCCCC(=O)C2C(=O)CC(C)(C)CC2=O)C(=O)C1 | inconclusive [inhibitor, single point]
CNC(C)C#Cc1ccc2oc3cccc(OC)c3c(=O)c2c1 (centres undefined) | inactive
Cc1cc(=O)[nH]c(SCC(=O)N2CCN(C(c3ccccc3)c3ccccc3)CC2)n1 | inactive
CC(=O)N/C(=N\c1nc(C)cc(C)n1)Nc1ccc2ccccc2c1 | inactive
C/C(=N\NC(=O)C1=NNC(=O)C1C)c1cccs1 (centres undefined) | inactive
Cc1cccc(OCC(=O)Nc2ccc(S(=O)(=O)N3CCN(C)CC3)cc2)c1 | inconclusive [inhibitor, full curve, poor fit]
CCn1cc(C(=O)Nc2ccc(OC)c(S(=O)(=O)N3CCCCC3)c2)c(=O)c2ccc(C)nc21 | inconclusive [inhibitor, partial curve]
O=S1(=O)c2cccc3cccc(c23)N1Cc1ccc(-c2nnco2)cc1 | inactive

SMILES | Potency
CCNC(=S)N/N=C/c1cccc(OCc2c(F)cccc2Cl)c1 | inconclusive [inhibitor, partial curve, poor fit]
Cc1ccc(CNC(=O)c2cc(C)nn2-c2ccccc2)cc1 | inactive
Cc1ccc(C(C(=O)NCCc2ccccc2)N(C(=O)c2csnn2)C2CC2)o1 (centres undefined) | inconclusive [inhibitor, full curve]
C=CCOc1ccc(C(=O)N(Cc2ccc(N(C)C)cc2)C2CCS(=O)(=O)C2)cc1 (centres undefined) | inconclusive [inhibitor, full curve, poor fit]
COc1ccc(CCNC(=O)CCNS(=O)(=O)c2ccc3c(c2)CCN3C(C)=O)cc1OC | inconclusive [inhibitor, full curve, poor fit]
Cc1ccc(NC2CCCN(C(=O)CCc3cn[nH]c3)C2)cc1C (centres undefined) | inconclusive [inhibitor, full curve, poor fit]
O=C(NCc1ccc2c(c1)OCO2)c1ccccn1 | inconclusive [inhibitor, single point]
CC1CCCN(S(=O)(=O)c2ccc(C(=O)Nc3nnc(-c4ccccn4)o3)cc2)C1 (centres undefined) | inactive
N#Cc1nc(COc2ccccc2Cl)oc1NCCc1ccccc1 | inactive
Cc1cc(C)c(NC(=O)CCCC(=O)O)c(Cl)c1 | inconclusive [inhibitor, single point]
COCCCNC(=O)C1C2C=CC3(CN(Cc4ccc(C)cc4)C(=O)C13)O2 (centres undefined) | inconclusive [inhibitor, partial curve]
CCOc1ccccc1NC(=O)CSc1nnnn1-c1ccc(C(=O)OC)cc1 | inconclusive [inhibitor, full curve, poor fit]
Cc1ccc(NCC(=O)N/N=C/c2cc3ccccc3nc2Cl)cc1 | inconclusive [inhibitor, single point]
COc1cc(C)c(NC(=O)COc2ccc3c(c2)OCO3)cc1C | inactive
COc1ccc(OCc2nnc(SCC(=O)N3CCCCC3)o2)cc1 | inactive
CCC(=O)c1ccc(OCC(=O)N2CCN(C(=O)c3ccccc3)CC2)cc1 | inconclusive [inhibitor, partial curve, poor fit]
COc1ccccc1C(=O)NC(=O)COC(=O)CCS(=O)(=O)c1ccc(C)cc1 | inconclusive [inhibitor, partial curve, poor fit]
COc1ccc(OC)c(C2C(C(=O)Nc3nc4ccccc4s3)=C(C)NC3=C2C(=O)CCC3)c1 (centres undefined) | inconclusive [inhibitor, full curve]
CC(C)Cc1nnc(NC(=O)CCC(=O)NC2CC2)s1 | inconclusive [inhibitor, partial curve, poor fit]
Cc1ccc(Sc2cnn(-c3ccccc3)c(=O)c2Cl)cc1 | inconclusive [inhibitor, full curve, poor fit]
O=C(Cc1ccc(Cl)c(Cl)c1)NNC(=S)NCC1CCCO1 (centres undefined) | inactive
Cn1cnc([N+](=O)[O-])c1Cl | inactive
Cc1ccc(-c2nc(-c3ccccn3)no2)cc1[N+](=O)[O-] | inactive

SMILES | Potency
CCOc1ccc(-n2c(SCC(=O)Nc3cc(C)on3)nc3c([nH]c4ccccc43)c2=O)cc1 | inconclusive [inhibitor, full curve]
CCc1cc(C(=O)NNC(=O)c2csc(N3CCOCC3)n2)sc1C | inconclusive [inhibitor, full curve, poor fit]
CCCCn1c(=NC(=O)c2cccnc2)c(C#N)cc2c(=O)n3cccc(C)c3nc21 | inactive
Cc1onc(-c2ccccc2)c1C(=O)Nc1nnc(C(C)C)s1 | inconclusive [inhibitor, full curve]
O=C(NCCN1CCN(c2ccccc2)CC1)C1(S(=O)(=O)c2ccc(Cl)cc2)CC1 | inactive
COc1ccc(S(=O)(=O)N(CC(=O)NCc2ccncc2)c2ccc(C)cc2)cc1OC | inconclusive [inhibitor, partial curve]
O=C(CCCc1ccccc1)NCc1ccc(Cl)cc1 | inconclusive [inhibitor, partial curve]
CC1Cc2cc(/C(O)=C3/C(=O)C(=O)N(CCCn4ccnc4)C3c3ccco3)ccc2O1 (centres undefined) | inconclusive [inhibitor, full curve, poor fit]
COC(=O)CCN(C(=O)C1C2CC3CC(C2)CC1C3)c1ccccn1 (centres undefined) | inconclusive [inhibitor, full curve, poor fit]
COCCNc1nc(-c2ccc(OC)cc2)c(-c2ccc(OC)cc2)s1 | inconclusive [inhibitor, single point]
CCOC(=O)c1c(CN2CCOCC2)oc2ccc(OC(C)=O)cc12 | inconclusive [inhibitor, full curve]
COc1ccc(S(=O)(=O)N2CCOC23CCN(S(=O)(=O)c2ccc(Cl)cc2)CC3)cc1 | inactive
Oc1c(Cl)cc(Cl)cc1/C=N/c1nccs1 | inactive
Cc1nn(-c2ccccc2)c2sc(C(=O)C(C#N)c3ccccn3)cc12 (centres undefined) | inconclusive [inhibitor, full curve]
COc1ccc(OC)c(NC(=O)Cn2c(=O)n(-c3cccc(C)c3)c(=O)c3c2c2cc(C)ccc2n3C)c1 | inactive
Cc1cccc(-c2oc3ccccc3c2-c2ccc3c(c2)OCO3)c1 | inconclusive [inhibitor, partial curve]
CCOc1ccc(C(=O)Nc2ccc(CN3CCOCC3)cc2)cc1Br | inactive
O=C(c1cc(-c2cccc(Cl)c2)on1)N1CCCCC1 | inactive
CC(=O)N1CCN(Cc2nc3cc(NC(=O)Cn4nc(C)c5ccccc5c4=O)ccc3n2C)CC1 | inconclusive [inhibitor, full curve, poor fit]
Cc1ccccc1NS(=O)(=O)c1ccc2[nH]cc(C(=O)NC3CCCCC3)c(=O)c2c1 | inconclusive [inhibitor, full curve, poor fit]
CCOC(=O)NC1Cc2ccccc2C1Sc1ccccn1 (centres undefined) | inactive
CC1CCCCC1Nc1nc2ccc(Cl)cc2n2cnnc12 (centres undefined) | inconclusive [inhibitor, partial curve]
COc1ccccc1NC(=O)C1CCCN(S(=O)(=O)c2cnc[nH]2)C1 (centres undefined) | inconclusive [inhibitor, full curve, poor fit]
